Measured values as given in patent US20240092853A1 (Hoffmann-La Roche, published 2024).

Target: T1, IL-2 receptor on human NK cells (CD3neg CD56pos cells of fresh human PBMCs) (human, UniProt P14784 27-551; P31785 23-369)
T1 sequence (looked up) 1: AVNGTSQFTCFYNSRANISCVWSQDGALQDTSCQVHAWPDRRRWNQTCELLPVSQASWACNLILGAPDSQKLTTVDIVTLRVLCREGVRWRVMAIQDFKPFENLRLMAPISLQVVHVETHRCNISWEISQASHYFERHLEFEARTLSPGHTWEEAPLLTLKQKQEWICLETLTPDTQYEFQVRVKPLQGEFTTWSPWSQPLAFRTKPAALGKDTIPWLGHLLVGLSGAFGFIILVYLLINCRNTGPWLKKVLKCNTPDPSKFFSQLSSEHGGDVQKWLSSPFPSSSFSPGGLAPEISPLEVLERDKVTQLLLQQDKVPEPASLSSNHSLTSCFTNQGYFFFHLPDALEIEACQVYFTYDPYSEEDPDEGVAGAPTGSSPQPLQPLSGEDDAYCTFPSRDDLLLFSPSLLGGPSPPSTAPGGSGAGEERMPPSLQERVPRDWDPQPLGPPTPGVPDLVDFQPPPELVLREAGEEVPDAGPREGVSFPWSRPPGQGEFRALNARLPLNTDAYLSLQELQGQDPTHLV
T1 sequence (looked up) 2: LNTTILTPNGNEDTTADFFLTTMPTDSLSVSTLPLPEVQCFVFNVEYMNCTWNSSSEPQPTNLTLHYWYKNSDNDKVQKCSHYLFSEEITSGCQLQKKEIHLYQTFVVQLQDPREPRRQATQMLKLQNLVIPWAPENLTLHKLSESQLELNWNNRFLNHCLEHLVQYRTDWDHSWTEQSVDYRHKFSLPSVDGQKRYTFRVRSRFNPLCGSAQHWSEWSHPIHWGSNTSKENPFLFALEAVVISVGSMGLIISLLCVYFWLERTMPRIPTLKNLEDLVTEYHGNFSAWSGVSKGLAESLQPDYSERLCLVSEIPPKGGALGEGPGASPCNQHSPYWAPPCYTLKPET
Assay: cell-based or functional assay

% AUC at pH 6.5 (pSTAT5 in NK cells, normalized to CD8 IgG IL2v at pH 7.4): 61.3%
% AUC at pH 7.4 (pSTAT5 in NK cells, normalized to CD8 IgG IL2v at pH 7.4): 120%
B1: Proleukin (ligand)
chain: not shown
